Laboratory results: PubChem BioAssay (NCATS)
The inconclusive results got no clear call from the source; some entries with a clear call stand among them for comparison. A potency beside an inconclusive call is a rough fit, not a confirmed value. Calls of active or inactive are those of the source. Calls follow the shape of the dose curve; as a rule, active = well fitted inhibition curve with a large enough effect; inconclusive = small, poorly fitted or top-dose-only effect, or another doubt; inactive = no such curve, though single readings can be large or run the other way.

Molecular target: DNA polymerase eta (Homo sapiens) (UniProt Q9Y253)
Assay: qHTS for Inhibitors of Polymerase Eta: Confirmatory Assay for Cherry-picked Compounds (AID 720502)
Settings: Pol eta primer extension, TAMRA/BHQ fluorescence, 10 min
Method in brief: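 10 nM Pol eta + cpd, 15 min RT; start w/ 50 nM final primer/TAMRA-reporter/BHQ-2-template substrate; kinetic read 0 and 10 min, ex 525/em 598 nm. Buffer-only wells = negative control.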
Potency is read from the fitted curve at half-maximal effect; tags tell the direction and shape of the fitted curve.

Chain of UniProt Q9Y253 (Q9Y253 whole entry, looked up): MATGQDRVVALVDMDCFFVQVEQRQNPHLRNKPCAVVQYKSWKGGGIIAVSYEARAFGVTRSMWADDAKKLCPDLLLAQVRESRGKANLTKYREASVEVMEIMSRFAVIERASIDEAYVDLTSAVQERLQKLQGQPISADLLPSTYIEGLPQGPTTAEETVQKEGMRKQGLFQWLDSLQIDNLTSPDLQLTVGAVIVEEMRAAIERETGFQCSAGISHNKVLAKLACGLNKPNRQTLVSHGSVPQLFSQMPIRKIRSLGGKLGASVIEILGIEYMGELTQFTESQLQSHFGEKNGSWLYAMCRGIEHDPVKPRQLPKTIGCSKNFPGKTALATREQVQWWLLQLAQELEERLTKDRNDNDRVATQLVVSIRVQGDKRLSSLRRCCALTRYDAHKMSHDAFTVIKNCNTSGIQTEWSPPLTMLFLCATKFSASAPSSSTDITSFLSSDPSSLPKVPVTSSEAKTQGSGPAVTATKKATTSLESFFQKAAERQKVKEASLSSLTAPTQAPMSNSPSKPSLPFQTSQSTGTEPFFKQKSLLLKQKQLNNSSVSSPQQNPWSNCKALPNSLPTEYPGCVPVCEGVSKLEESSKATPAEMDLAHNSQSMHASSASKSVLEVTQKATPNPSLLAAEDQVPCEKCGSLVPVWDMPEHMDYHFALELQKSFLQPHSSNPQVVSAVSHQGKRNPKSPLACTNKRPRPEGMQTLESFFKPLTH

Potency, inconclusive:
O=C(O)c1c2c(nc3ccc(S(=O)(=O)N4CCC(C(=O)NC5CCCCCC5)CC4)cc13)CCCC2 75.7 µM [inhibitor, single point], Cc1c(CCOC(=O)c2ccc(N3CCOCC3)c([N+](=O)[O-])c2)sc[n+]1CC#N 95.3 µM [inhibitor, single point], Cc1ccc(C)c(/C=C(\C(=O)O)c2ccc(S(=O)(=O)N3CCCCC3)s2)c1 84.9 µM [inhibitor, single point], N#Cc1c(NC(=O)COC(=O)c2ccc(O)cc2O)sc2c1CCC2 84.9 µM [inhibitor, single point], COc1cc(/C=C2/C(=O)NN(c3ccc(F)cc3)C2=O)cc([N+](=O)[O-])c1O 84.9 µM [inhibitor, single point], CC(=O)Oc1cc(C(=O)OCC(=O)N2CCc3ccccc3C2)cc(OC(C)=O)c1OC(C)=O 60.1 µM [inhibitor, partial curve, poor fit], S=c1[nH]nc(-c2cc(-c3ccco3)[nH]n2)n1-c1ccccc1Cl 84.9 µM [inhibitor, single point], Cc1noc(NS(=O)(=O)c2ccc(NC(=O)c3ccoc3C)cc2)c1C 95.3 µM [inhibitor, single point], CCN(CCCCN1C(=O)c2ccccc2C1=O)c1ccc2c(c1)C(=O)N(C)C2=O 84.9 µM [inhibitor, single point], CCN(CC(=O)Nc1ccc(NC(C)=O)cc1)C(=O)CSc1ncnc2sc(C)c(C)c12 75.7 µM [inhibitor, single point], N#Cc1c(/N=C/c2ccc(-c3ccc(C(=O)O)c(Cl)c3)o2)sc2c1CCCC2 95.3 µM [inhibitor, single point], CCOCCCN(Cc1ccco1)S(=O)(=O)c1cc2c(cc1Cl)NC(=O)CO2 95.3 µM [inhibitor, single point], COC(=O)/C=C1\SC(=NC(=O)c2ccc(-c3ccccc3)cc2)NC1=O 84.9 µM [inhibitor, single point], CCOc1ccccc1OCC(=O)NCc1ccco1 84.9 µM [inhibitor, single point], NS(=O)(=O)c1ccc(CCNC(=O)CSc2ccsc2[N+](=O)[O-])cc1 84.9 µM [inhibitor, single point], O=C1C=CC(n2cc(F)c(=O)[nH]c2=O)O1 (configuration not stated) 95.3 µM [inhibitor, single point], CN(C)C1(CN=Cc2cc(Cl)cc([N+](=O)[O-])c2O)CCCCC1 95.3 µM [inhibitor, single point], O=C(CCN1C(=O)/C(=C\C=C\c2ccccc2)SC1=S)Nc1ccccc1C(=O)O 95.3 µM [inhibitor, single point], O=C(O)C/C(=C\c1cccc(NC(=O)c2ccccc2Cl)c1)c1nc2ccccc2s1 95.3 µM [inhibitor, single point], CCc1c(C)sc(NC(=O)CC#N)c1C#N 75.7 µM [inhibitor, single point], CC1CCN(C(=O)COC(=O)c2ccc([N+](=O)[O-])o2)CC1 95.3 µM [inhibitor, single point], CC[N+](CC)(CC)CCCCOc1ccc2c(c1)C(=O)c1cc(OCCCC[N+](CC)(CC)CC)ccc1-2 23.9 µM [inhibitor, full curve], CCCc1cc(=O)[nH]c(SCC(=O)Nc2sccc2C#N)n1 84.9 µM [inhibitor, single point], O=C1/C(=C\c2cccc([N+](=O)[O-])c2O)SC(=S)N1Cc1ccccc1 84.9 µM [inhibitor, single point], Cc1c(CCC(=O)O)c(=O)oc2c(C)c3occ(-c4ccc(Cl)cc4)c3cc12 84.9 µM [inhibitor, single point], O=C(COC(=O)c1ccc(F)cc1Cl)NCc1ccco1 84.9 µM [inhibitor, single point]

Potency, active:
O=C(CSc1ccsc1[N+](=O)[O-])NCc1ccco1 30.1 µM
